Experimental findings from paper PMC4336329 (PLoS ONE, 2015) are described below.

Hit rate of the full screen: of about 310,000 compounds, about 14,000 (4.5%) showed an effect of 50% or more. The effect is printed as a negative number. This is one part of the list.
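Note: peak tail current of the secondary pulse compared with the same well before compound.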

human ether-à-go-go-related gene (hERG) potassium channel, sequence (Q12809 whole entry, looked up): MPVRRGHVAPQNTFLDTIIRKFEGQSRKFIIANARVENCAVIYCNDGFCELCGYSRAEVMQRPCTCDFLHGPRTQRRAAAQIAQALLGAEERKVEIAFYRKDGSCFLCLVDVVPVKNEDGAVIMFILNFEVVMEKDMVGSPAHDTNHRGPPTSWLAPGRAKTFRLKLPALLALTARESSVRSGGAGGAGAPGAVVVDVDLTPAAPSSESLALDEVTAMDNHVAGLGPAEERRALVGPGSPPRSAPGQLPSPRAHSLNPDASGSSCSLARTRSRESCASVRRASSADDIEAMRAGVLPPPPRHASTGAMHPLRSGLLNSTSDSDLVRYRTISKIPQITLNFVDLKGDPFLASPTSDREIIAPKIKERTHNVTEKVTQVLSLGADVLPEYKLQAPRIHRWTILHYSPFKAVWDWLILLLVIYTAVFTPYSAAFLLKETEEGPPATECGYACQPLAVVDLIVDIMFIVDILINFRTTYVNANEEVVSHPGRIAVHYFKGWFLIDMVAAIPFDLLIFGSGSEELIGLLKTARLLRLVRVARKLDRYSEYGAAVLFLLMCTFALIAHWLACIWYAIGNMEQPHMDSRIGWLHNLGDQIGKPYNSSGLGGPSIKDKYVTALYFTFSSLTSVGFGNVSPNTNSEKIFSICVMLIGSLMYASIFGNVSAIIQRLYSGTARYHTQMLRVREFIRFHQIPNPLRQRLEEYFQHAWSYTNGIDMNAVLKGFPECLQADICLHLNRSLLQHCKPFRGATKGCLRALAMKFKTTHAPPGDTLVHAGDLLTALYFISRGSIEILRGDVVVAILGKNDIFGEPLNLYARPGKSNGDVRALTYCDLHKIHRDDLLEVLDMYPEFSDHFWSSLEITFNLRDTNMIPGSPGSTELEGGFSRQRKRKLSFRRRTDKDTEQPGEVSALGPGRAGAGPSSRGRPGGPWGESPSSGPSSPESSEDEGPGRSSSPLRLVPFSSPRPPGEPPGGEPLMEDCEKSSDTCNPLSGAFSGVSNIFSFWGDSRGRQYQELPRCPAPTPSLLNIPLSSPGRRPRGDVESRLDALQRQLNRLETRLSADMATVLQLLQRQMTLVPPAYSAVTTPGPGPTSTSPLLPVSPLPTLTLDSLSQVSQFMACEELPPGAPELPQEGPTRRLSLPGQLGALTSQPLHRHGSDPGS

The assay addresses human ether-à-go-go-related gene (hERG) potassium channel (human, UniProt Q12809). The experiment in a line: primary screen, population patch clamp on CHO cells stably expressing hERG.
As for `O=C(CN(c1ccccc1)S(=O)(=O)c1ccccc1[N+](=O)[O-])Nc1cccnc1`, the “hERG current change (%, negative = inhibition) at 10uM” value is given as -21.1%.

Take `COc1ccc(-c2nc(N)nc(C(F)(F)F)c2-c2cscn2)c(O)c1`: the “hERG current change (%, negative = inhibition) at 10uM” value came to 6.72%.

On to `OC1(c2ccccc2F)CC2CCC(C1)N2CCN1CCOCC1` (stereo not drawn), for which the “hERG current change (%, negative = inhibition) at 10uM” value was found to be 0.373%.

For `C=CCOC(Cn1ccnc1)c1ccc(Cl)cc1Cl` (stereo not drawn), the “hERG current change (%, negative = inhibition) at 10uM” value was -29.6%.

Take `Cc1cccc2sc(NC(=O)[C@H](C)N3C(=O)C4CC=CCC4C3=O)nc12` (stereo partly drawn): the “hERG current change (%, negative = inhibition) at 10uM” value is 23.9%.

`COc1ccc(C(CNC(=O)c2[nH]c(C)c(C(C)=O)c2C)N2CCOCC2)cc1` (stereo not drawn): the “hERG current change (%, negative = inhibition) at 10uM” value is on record as -4.61%.

On to `CCn1c(O)c(/C=N/N=C2CCCCC2)c2cc(C3=NNC(=O)CC3)ccc21`, for which the “hERG current change (%, negative = inhibition) at 10uM” value came out at 4.79%.

In the case of `CC(=O)N1CCN(S(=O)(=O)c2ccccc2)C1c1ccccc1` (stereo not drawn), the “hERG current change (%, negative = inhibition) at 10uM” value is -4.22%.

For `CCN(CC)S(=O)(=O)c1ccc2c(c1)oc(=O)n2CC(=O)NC1CCCCC1`, the “hERG current change (%, negative = inhibition) at 10uM” value was determined as 9.66%.

With `COc1c(C(=O)Nc2ccc(Br)cn2)ccc2ccccc12`, the “hERG current change (%, negative = inhibition) at 10uM” value stood at 8.4%.

As for `CCCc1ncc(CN2CCC(C(=O)Nc3cccc(-c4cscn4)c3)CC2)cn1`, the “hERG current change (%, negative = inhibition) at 10uM” value was -34.9%.

Turning to `COc1cc(C(=O)N(Cc2cccnc2)Cc2cc3cc4c(cc3[nH]c2=O)OCCO4)cc(OC)c1OC`, the “hERG current change (%, negative = inhibition) at 10uM” value was 10.1%.

For the compound `COc1ccc(CC(NC(C)=O)C(=O)NC2CCN(S(=O)(=O)c3cccc4ccccc34)CC2)cc1OC` (stereo not drawn), the “hERG current change (%, negative = inhibition) at 10uM” value is 6%.

For the compound `CCOC(=O)c1c(NC(=O)CSC(=S)N(C)C)sc(C)c1C`, the “hERG current change (%, negative = inhibition) at 10uM” value amounted to 12.5%.

In the case of `COc1cc(OC)cc(C(=O)N[C@H](C(=O)OCC(=O)Nc2ccc(OC)c(OC)c2)C(C)C)c1`, the “hERG current change (%, negative = inhibition) at 10uM” value was -11.1%.

Turning to `Cc1ccc(CCNC(=O)c2cc(S(=O)(=O)N3CCCCC3)c[nH]2)cc1`, the “hERG current change (%, negative = inhibition) at 10uM” value turned out to be 2.26%.

In the case of `Cc1ccc2c(c1)[C@@H](O)C[C@@H](C)N2N=O`, the “hERG current change (%, negative = inhibition) at 10uM” value is -3.52%.

In the case of `CCN(C(=O)CN1CCN(c2ccccc2O)CC1)c1c(N)n(Cc2ccccc2)c(=O)[nH]c1=O`, the “hERG current change (%, negative = inhibition) at 10uM” value was -1.71%.

Take `CC(C)C(OC(=O)c1nsc(Cl)c1Cl)C(=O)NC1CCCCC1` (stereo not drawn): the “hERG current change (%, negative = inhibition) at 10uM” value is reported as -17.7%.

`CC(=O)c1c(C)nc(-c2ccccc2)nc1NC(=O)C(C)C`: the “hERG current change (%, negative = inhibition) at 10uM” value is -8.71%.

Turning to `CC(COc1ccccc1)N1CCC(CO)(Cc2ccccc2)CC1` (stereo not drawn), the “hERG current change (%, negative = inhibition) at 10uM” value was -50.6%.

In the case of `Cc1cc(=O)oc2cc(OC(C)C(=O)NCc3ccccn3)ccc12` (stereo not drawn), the “hERG current change (%, negative = inhibition) at 10uM” value is reported as 9.03%.

For `CCOC(=O)c1c(CN2CCN(c3ccccc3)CC2)oc2cc(Br)c(O)cc12.Cl`, the “hERG current change (%, negative = inhibition) at 10uM” value amounted to 14.3%.

In the case of `CC(NC(=O)[C@H](Cc1c[nH]c2ccccc12)NC(=O)[C@@H]1Cc2ccccc2CN1)c1ccccc1` (stereo partly drawn), the “hERG current change (%, negative = inhibition) at 10uM” value is listed as -42%.

For `COc1ccc(C(c2nnnn2Cc2cccs2)N2CCN(c3ccccc3)CC2)cc1OC` (stereo not drawn), the “hERG current change (%, negative = inhibition) at 10uM” value was -63.5%.

On to `N#CCSc1nnc(Nc2ccccc2)s1`, for which the “hERG current change (%, negative = inhibition) at 10uM” value is on record as -3.62%.

As for `COC(=O)CC/C(O)=C1\C(=O)CC(C)(C)CC1=NCCc1nc2ccccc2[nH]1`, the “hERG current change (%, negative = inhibition) at 10uM” value is reported as 3.19%.

For the compound `COc1cccc(NC(=S)N2CCC(NC(=O)c3ccco3)CC2)c1`, the “hERG current change (%, negative = inhibition) at 10uM” value is -11%.

For `O=C(NC(=S)Nc1ccc2c(c1)OCO2)c1ccccc1`, the “hERG current change (%, negative = inhibition) at 10uM” value was 11.4%.

Turning to `CCC1(CC)NC(=O)N(CC(=O)OC(C)C(=O)Nc2ccc(NC(C)=O)cc2)C1=O` (stereo not drawn), the “hERG current change (%, negative = inhibition) at 10uM” value is 3.1%.

`COCc1c(C#N)c(NCCc2ccccc2)nc(C)c1[N+](=O)[O-]`: the “hERG current change (%, negative = inhibition) at 10uM” value came out at 19.1%.

Regarding `CCn1c2ccccc2c2nnc(SCc3ccccc3)nc21`, the “hERG current change (%, negative = inhibition) at 10uM” value is on record as -3.61%.

Regarding `Cc1ccccc1C(=O)N1CCC(C(=O)Nc2cccc(S(=O)(=O)N3CCCCC3)c2)CC1`, the “hERG current change (%, negative = inhibition) at 10uM” value is recorded as -23.3%.

In the case of `Cc1cc(C)c2c(CN3CCCCC3C)cc(=O)oc2c1.Cl` (stereo not drawn), the “hERG current change (%, negative = inhibition) at 10uM” value came to 13.9%.

Consider `CCOC(=O)N1CCN(C(=O)/C(=C/c2ccc(F)cc2)NC(=O)c2ccccc2)CC1`, for which the “hERG current change (%, negative = inhibition) at 10uM” value was -48.5%.

For the compound `O=C(NNC(=O)C1CCCO1)c1ccc(F)cc1` (stereo not drawn), the “hERG current change (%, negative = inhibition) at 10uM” value is 25.5%.

In the case of `O=C(CN1CCN(c2nc(-c3ccc(F)cc3)cs2)CC1)Nc1ccc2c(c1)OCO2`, the “hERG current change (%, negative = inhibition) at 10uM” value was -21.6%.

With `CC(=O)c1ccc(OCC(O)CN2CCN(Cc3ccccc3)CC2)cc1.Cl` (stereo not drawn), the “hERG current change (%, negative = inhibition) at 10uM” value is reported as -48.2%.

In the case of `C=CCOc1ccc(C2/C(=C(\O)c3ccc(F)cc3)C(=O)C(=O)N2CCCN(C)C)cc1` (stereo not drawn), the “hERG current change (%, negative = inhibition) at 10uM” value is 26.7%.

On to `CN1CCN(S(=O)(=O)c2cccc(C(=O)Oc3ccccc3Cl)c2)CC1`, for which the “hERG current change (%, negative = inhibition) at 10uM” value was -9.53%.

For the compound `Cc1ccc(C(=O)NCc2ccccn2)cc1S(=O)(=O)N1CCOCC1`, the “hERG current change (%, negative = inhibition) at 10uM” value was found to be 8.99%.

In the case of `Cc1ccccc1N(CC(=O)NCCc1ccccc1)C(=O)CCC(=O)Nc1ccccn1`, the “hERG current change (%, negative = inhibition) at 10uM” value is -1.2%.
